Data taken from the supplement of paper PMC12217912.
This is one part of the list. Sequences were assembled here from the parent chain. Values near 0.05 are background.

B1: TEV protease; numbered along this chain (parent)
chain: MGESLFKGPRDYNPISSSICHLTNESDGHTTSLYGIGFGPFIITNKHLFRRNNGTLVVQSLHGVFKVKDTTTLQQHLVDGRDMIIIRMPKDFPPFPQKLKFREPQREERICLVTTNFQTKSMSSMVSDTSCTFPSGDGIFWKHWIQTKDGQCGSPLVSTRDGFIVGIHSASNFTNTNNYFTSVPKNFMELLTNQEAQQWVSGWRLNADSVLWGGHKVFMVKPEEPFQPVKEATQL

Variants of: B1
Experiment: raw area under fraction-flipped curve 0-4 h after induction (AUC4h, not background-subtracted), DNA-recorder readout of cleavage of the substrate (dimensionless); higher = more cleavage of the substrate by the protease variant
Settings: temperature: 34 °C; time window: 0-4 h after rhamnose induction
Description: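 In vivo DNA recorder in E. coli TOP10(DE3) ΔrhaA at 34 °C. Each TEVp single-site mutant (parent TEVp 0) is paired with a single-site variant of the 7-mer TEVs (canonical ENLYFQ|S). The substrate sits between flexible linkers in a Bxb1-sfGFP-TEVs-SsrA fusion, so cleavage stabilises Bxb1 and speeds flipping of a recombination array, read by NGS. The value is the raw area under the fraction-flipped curve over 0-4 h after rhamnose induction (AUC4h), with ≥20 reads per time point. It is not background-subtracted; inactive controls average about 0.047.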
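Note: Bxb1 expression induced with 0.2% (w/v) L-rhamnose at OD600 near 0.5, cultures sampled hourly, flipped fraction per protease–substrate barcode pair counted by paired-end Illumina sequencing.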

Variant	area with substrate ENLYGQS	area with substrate ENLYHQS	area with substrate ENLYIQS	area with substrate ENLYKQS	area with substrate ENLYLQS	area with substrate ENLYNQS	area with substrate ENLYPQS	area with substrate ENLYRQS	area with substrate ENLYTQS	area with substrate ENLYVQS	area with substrate ENLYWQS	area with substrate ENLYEQS	area with substrate ENLYMQS	area with substrate ENLYQQS	area with substrate ENLYDQS	area with substrate ENLYSQS	area with substrate ENLYYQS
E107Y	0.0502	0.0794	0.116	0.0139	0.112	0.0679	0.0728	0.0633	0.0646	0.108	0.0795	–	–	–	–	–	–
T70I	0.0693	0.0588	–	0.0737	0.0832	0.0708	0.0561	0.0576	–	0.078	0.0731	0.0619	0.0578	0.0557	–	–	–
L77Y	0.0593	0.0543	0.0616	0.05	0.0561	0.0595	0.0542	0.0689	0.063	0.058	–	0.057	0.0292	–	0.0539	0.0614	–
D82K	0.0642	0.059	–	0.0642	–	0.0724	0.0609	0.0648	–	–	–	0.0691	0.0572	–	0.0646	–	–
V78W	0.0715	0.0496	–	0.0749	0.0731	0.0578	0.0722	0.0612	0.0648	–	0.0634	0.0615	0.0649	0.0635	0.0649	0.0559	0.0554
S158G	0.078	0.0696	0.131	0.0604	0.1	0.0668	0.0086	0.0846	0.0848	0.093	–	0.0654	0.102	0.0589	0.0421	0.0866	0.0663
Q234N	0.0858	0.0581	0.101	–	0.0969	0.0625	0.0688	0.0518	0.0734	–	0.0929	0.0693	–	0.0578	–	0.11	0.0977
W203N	0.0693	0.0606	–	0.0613	0.0575	0.0562	–	0.0595	0.0405	0.0638	0.0668	–	0.0569	–	0.0442	–	–
F187M	0.0656	0.0629	0.0894	0.0593	–	0.0711	0.0653	0.0464	0.0829	0.129	0.076	0.0639	0.0819	0.0643	–	–	0.0742
S171F	–	0.0565	0.0742	0.0549	–	0.0639	0.0608	–	0.0586	0.0524	0.0399	0.0455	0.0595	0.0648	0.0832	0.0642	–
T132I	0.0523	0.0686	0.137	0.126	–	0.0585	0.0666	0.0609	0.0747	–	–	0.0653	0.0818	0.0609	0.0656	0.0638	–
R109Q	0.0236	0.0694	0.117	–	–	0.0724	0.0587	0.055	0.0849	–	0.0951	0.0723	0.0731	0.0265	–	–	0.0627
T192M	0.0681	0.0702	0.11	0.0791	–	0.0725	0.0753	0.0446	0.0873	0.0821	0.0976	0.0659	0.0853	0.0573	0.0673	0.0652	0.0854
S124P	0.0741	–	0.105	–	0.0705	0.0772	0.042	0.0552	–	0.124	–	0.0566	–	–	0.055	–	–
W141A	–	0.0583	–	–	–	0.0456	0.0481	–	0.0408	0.0548	0.06	0.0648	0.0445	–	0.0553	0.0618	0.0524
W141P	0.0512	0.112	0.0385	0.0645	–	0.0589	0.0405	0.0471	0.052	–	0.0577	0.049	0.0544	0.0553	0.0745	0.0448	0.0612
F133W	0.0747	0.0748	0.108	0.0628	–	0.064	0.0542	0.048	0.0726	0.0922	0.084	0.0616	0.08	0.0667	0.0666	0.0807	0.056
K46T	0.0519	0.0611	0.0748	0.062	–	0.0572	0.0675	0.0535	0.0552	0.109	0.0618	0.0584	0.0754	–	–	0.0542	–
G166M	–	0.0438	0.0151	0.0363	–	0.0288	0.0428	–	–	0.0576	0.0522	0.0634	–	0.0191	0.0584	0.0433	0.0488
N116S	–	0.0624	–	–	–	–	–	0.047	0.0793	–	–	0.0859	0.0793	–	0.0494	0.0814	–
G162P	0.0668	0.0593	–	0.071	–	0.0623	0.0461	0.0543	–	0.0699	–	0.0528	0.064	0.0544	0.0644	0.0881	–
S18A	–	0.0542	–	–	0.0724	–	0.0697	–	0.0928	0.117	0.0784	0.0564	0.093	0.0327	–	0.0579	0.07
